# Laboratory results from PubChem BioAssay AID1745853 (National Center for Advancing Translational Sciences (NCATS), 2022).
# Values joined by “and” are separate entries in the source; they are usually repeats but may differ in a detail not shown here. Identical values can stand only once. The list shows a part of the results. The main result of the screen is listed elsewhere. These columns were measured beside it and carry no call.
# Columns and labels:
# Assay in all cases: Primary Screen for Target Class Profiling of Small Molecule Inhibitors of Methyltransferases
# [1] = biological target: Glycine N-methyltransferase (Homo sapiens) (UniProt Q14749); settings: purified enzyme, MTase-Glo SAH luminescence; measured here: GNMT inhibition; at 40 µM; stronger effect = lower value
# Method in brief: (§1)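 Each enzyme was assayed with SAM and its substrate. SAH formation detected by MTase-Glo luminescence; single-point 40 uM screen[…].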
# [2] = biological target: Guanidinoacetate N-methyltransferase (Homo sapiens) (UniProt Q14353); settings: purified enzyme, MTase-Glo SAH luminescence; measured here: GAMT inhibition; at 40 µM; stronger effect = lower value
# Method in brief: as §1
# [3] = biological target: Histamine N-methyltransferase (Homo sapiens) (UniProt P50135); settings: purified enzyme, MTase-Glo SAH luminescence; measured here: HNMT inhibition; at 40 µM; stronger effect = lower value
# Method in brief: as §1
# [4] = biological target: Nicotinamide N-methyltransferase (Homo sapiens) (UniProt P40261); settings: purified enzyme, MTase-Glo SAH luminescence; measured here: NNMT inhibition; at 40 µM; stronger effect = lower value
# Method in brief: as §1
# [5] = biological target: Phenylethanolamine N-methyltransferase (Homo sapiens) (UniProt P11086); settings: purified enzyme, MTase-Glo SAH luminescence; measured here: PNMT inhibition; at 40 µM; stronger effect = lower value
# Method in brief: as §1
# % is scaled to controls: 0 for no effect and ±100 for the full control effect.
Structure (SMILES),"activity change, negative = inhibition [1]","activity change, negative = inhibition [2]","activity change, negative = inhibition [3]","activity change, negative = inhibition [4]","activity change, negative = inhibition [5]"
CC1(O)CCC2C(C(=O)O)=COC(OC3OC(CO)C(O)C(O)C3OC(=O)/C=C/c3ccc(O)cc3)C21 (stereo not drawn),3.34%,-0.639%,8.14%,-8.95%,0.193%
COc1cc(/C=C2\CCCN([C@@H](C)c3ccc(F)cc3)C2=O)ccc1-n1cnc(C)c1,-63.4%,5.38%,-45.7%,-40.2%,-4.69%
N#Cc1ccc(O[C@@H]2c3ccccc3C[C@H]2N2CCC[C@@H](N)C2)c(Cl)c1,-2.96%,9%,1.7%,-13%,5%
COc1cccc2c1OCCCN(c1cc(C3CC(O)C3)nc(N)n1)C2 (stereo not drawn),-7.12%,-8.01%,-50.7%,-8.48%,-2.5%
CC(=O)O[C@@H]1[C@@H](OC(C)=O)[C@H](C)O[C@@H](O[C@H]2[C@@H]3C=CO[C@@H](O[C@@H]4O[C@H](CO)[C@@H](O)[C@H](O)[C@H]4O)[C@@H]3[C@@]3(CO)O[C@@H]23)[C@@H]1OC(=O)/C=C/c1ccccc1,-3.35%,-7.14%,6.9%,-18.6%,-6.54%
Cc1cccc(NC(=O)Cn2c(=O)oc3cc(S(=O)(=O)N4CCCCC4)ccc32)c1,-4.13%,4.89%,0.449%,-13.5%,-11.5%
O=C(CSc1nnc2n(Cc3ccc(F)cc3)c(=O)c3ccccc3n12)NC1CCCCC1,-4.08%,4.16%,3.25%,-17.5%,-2.04%
COC(=O)c1ccc(OC)c(CN2CC(=O)N(Cc3ccc(F)cc3)c3ccccc3S2(=O)=O)c1,7.72%,0%,6.15%,1.69%,2.06%
CCC(C)NC(=O)c1ccc2c(=O)n(C)c3nn(CC(=O)NCc4ccccc4)c(=O)n3c2c1 (stereo not drawn),-1.91%,0%,-0.702%,-22.5%,-1.26%
COc1ccc2cc([C@H](C)C(=O)O)ccc2c1,2.87% and -8.25%,-6.34% and -0.611%,-0.115% and -2.8%,-17.9% and -9.76%,-9.34% and 0.282%
N#Cc1cc(CN2CCC(Nc3ncnc4sc(Cl)cc34)CC2)ccc1F,-4.68%,4.69%,-2.5%,-33.6%,-22.9%
C=C1C(=O)OC2/C=C(/C)C3=CC(=O)C(C)(CC(OC(=O)/C(C)=C/COC(C)=O)C12)O3 (stereo not drawn),-3.48%,5.95%,10.2%,-2.51%,3.54%
CC1(C(=O)NC2CCCCCC2)Cn2c(cc3sccc32)C(=O)N1Cc1cccnc1 (stereo not drawn),0.037%,0%,6.27%,-7.6%,1.93%
COc1ccc2[nH]c3c(-c4cccc5ccccc45)nccc3c2c1,-1.2%,-15%,8.64%,-36.8%,-6.21%
Cc1ccc(C(=O)N2CCCC(n3cc(-c4nc(C5CC5)no4)nn3)C2)s1 (stereo not drawn),-9.41%,-8.71%,-6.33%,-5.51%,-10.5%
CCC(C)NC(=O)c1ccc2c(=O)n(C(C)C)c3nn(CC(=O)c4ccc(C)cc4)c(=O)n3c2c1 (stereo not drawn),0.608%,4.97%,-1.34%,1.01%,3.98%
CN1C(=O)c2cc(C(=O)NCCc3ccco3)nn2CC1(C)C(=O)NCc1ccc(F)cc1 (stereo not drawn),4.16%,2.89%,-4.12%,4.39%,4.54%
CC(C)C[C@H](CC(=O)NO)C(=O)N[C@H](C(=O)N[C@@H](C)C(=O)NCCN)C(C)(C)C,4.17%,6.1%,4.38%,-7.54%,2.53%
CC1CCC(NC(=O)C2(C)Cn3c(ccc3-c3ccco3)C(=O)N2Cc2ccc(F)cc2)CC1 (stereo not drawn),2%,0%,5.12%,-0.523%,-0.781%
CCOc1ccc(NC(=O)Cn2c(=O)oc3cc(S(=O)(=O)N4CCCC4)ccc32)cc1,-8.09%,-0.31%,-3.98%,-2.25%,-14%

Structure (SMILES),"activity change, negative = inhibition [1]","activity change, negative = inhibition [2]","activity change, negative = inhibition [3]","activity change, negative = inhibition [4]","activity change, negative = inhibition [5]"
CC1CCCC(NC(=O)C2(C)Cn3c(cc4occc43)C(=O)N2CCCc2ccccc2)C1C (stereo not drawn),-3.6%,1.36%,-5.88%,-7.04%,-7.95%
CN(CCN1C(=O)c2cc3occc3n2CC1(C)C(=O)NC1CCCCCC1)C1CCCCC1 (stereo not drawn),6.01%,3.34%,5.35%,4.72%,4%
CC(=O)O[C@H]1CC[C@H](C)[C@@]2(C)[C@H](OC(C)=O)c3c(C)coc3C(=O)[C@H]12,-2.04%,-4.87%,7.55%,-18.3%,-14.7%
C=CCn1c(=O)c2ccc(C(=O)NCC(C)C)cc2n2c(=O)n(CC(=O)Nc3cccc(C)c3)nc12,-5.08%,0.439%,-3.73%,-8.67%,-7.18%
C=Cc1ccc(Cn2nc3n(Cc4ccc(C)cc4)c(=O)c4ccccc4n3c2=O)cc1,3.85%,5.91%,4.81%,-3.68%,1.5%
COc1ccccc1CNC(=O)Cn1ccc2cc(S(=O)(=O)N3CCC(C)CC3)ccc21,6.17%,0.912%,6.13%,3.8%,4.25%
CCc1cccc(N(C)C(N)=Nc2cccc3ccccc23)c1,-9.11%,-5.05%,-44.3%,-15%,0.5%
COc1ccc(-c2cnc(-c3cccc4c3-c3ccccc3C4=O)o2)cc1,5.86%,2.07%,6.26%,-10%,0.878%
Cc1nnc2n1CCC(N(C)C(=O)NCCc1ccccc1)CC2 (stereo not drawn),1.17%,-1.92%,-2.14%,-0.052%,1.77%
CCOc1ccccc1CNC(=O)Cn1ccc2cc(S(=O)(=O)N3CCC(C)CC3)ccc21,3.1%,0.273%,-2.97%,0.635%,1.29%
NC(=O)C1=CC2C3C=CC2C(OC3=O)O1 (stereo not drawn),-3.87%,0.636%,7.99%,-12.6%,-6.15%
CCOC(=O)c1cc2n(n1)CC(C)(C(=O)NCc1ccccc1OC)N(Cc1ccc(SC)cc1)C2=O (stereo not drawn),5.4%,0.848%,10.2%,6.56%,5.24%
CNC(=O)c1ccc2c(c1)CCO[C@H]2CCN1CCN(c2ccc(OC)cc2)CC1,-4.14%,-1.52%,6.29%,-18.8%,0.011%
COc1ccc(C(=O)N2CCN(CCCn3nc4n(c3=O)CCCC4)CC2)cc1,-3.89%,-7.32%,-0.605%,-12.8%,-8.17%
Cc1cn([C@H]2C=C[C@@H](CO)O2)c(=O)[nH]c1=O,3.93%,15.6% and -3.85%,13.1%,-8.32% and -18.6%,1% and 1.88%
COc1cc2nc(=NC(=O)c3cccnc3)n3c(c2cc1OC)NCC3,-4.95%,-8.37%,6.57%,5.87%,-1.86%
C=Cc1ccc(Cn2nc3n(CCC)c(=O)c4ccc(C(=O)NC(C)CC)cc4n3c2=O)cc1 (stereo not drawn),1.4%,0%,4.6%,-2.34%,4.52%
CCn1cc(-c2ccc(Cl)cc2)cc1C(=O)N1CCN(c2ccccn2)CC1,-7.75%,-5.73%,-9.5%,-11.4%,-6.17%
c1ccc(C2=NOC3(CCN(C4CCCCC4)CC3)C2)cc1,-2.42%,-6.8%,-17.9%,-5.95%,-0.299%
O=C1CCN(C(=O)CCc2ccccc2)CCCC(CO)CCN1 (stereo not drawn),0.319%,-0.681%,1.48%,-5.21%,-4.36%

Structure (SMILES),"activity change, negative = inhibition [1]","activity change, negative = inhibition [2]","activity change, negative = inhibition [3]","activity change, negative = inhibition [4]","activity change, negative = inhibition [5]"
Cn1cc(-c2cnc(Nc3cccnc3)c3c2CCO3)cn1,-14.2%,-12.8%,-17.2%,-8.39%,-4.49%
O=c1c(NS(=O)(=O)Cc2ccccc2)ccc2n1C[C@H]1C[C@@H]2CN(S(=O)(=O)c2ccccc2)C1,-3.02%,-0.128%,-1.31%,-3.35%,0.772%
CNC(=O)c1cc(C2CC2)nc2onc(C3CCCN3C(=O)Cc3ccccn3)c12 (stereo not drawn),0.536%,0.188%,1.06%,-3.98%,-2.02%
C[C@]12CC[C@@H]3c4ccc(O[C@@H]5O[C@H](C(=O)O)[C@@H](O)[C@H](O)[C@H]5O)cc4CC[C@H]3[C@@H]1CCC2=O,-2.22%,-4.56%,7.03%,-12.1%,1.72%
Nc1ncnc2c1nc(Br)n2C1OC2COP(=O)(O)O[C@@H]2C1O (stereo partly drawn),7.18%,11.5%,7.3%,-2.96%,5.66%
COc1cccc(C(=O)N(C)C2CCc3ccccc32)c1 (stereo not drawn),-4.4%,-4.01%,-2%,-16.3%,-14.6%
OCc1ccccc1O[C@@H]1O[C@H](CO)[C@@H](O)[C@H](O)[C@H]1O,0.371%,-3.35%,7.09%,-12.8%,-0.237%
Cc1nc([C@@H]2CN(C(=O)c3sccc3C)C[C@H]2C(N)=O)n[nH]1,-0.784%,-0.611%,1.7%,-3.61%,-5.37%
Cc1noc(C)c1-c1cc2c(cc(C)n2C)c(NCc2ccncc2)n1,-27.2%,-17.3%,-16.6%,-21.1%,-44.3%
C[n+]1cc(NC(=O)c2cccc(C(=O)Nc3cc4ccccc4[n+](C)c3)n2)cc2ccccc21,,7.39%,,-8.35%,6.04%
COc1ccc(N(C(=O)c2ccccc2OC)S(=O)(=O)c2ccc3c(c2)n(C)c(=O)n3C)cc1,-0.188%,1.19%,5.75%,-2.7%,0.947%
COc1ccc(C)cc1NC(=O)CCC[C@@H]1[C@H]2CCCN3CCC[C@@H](CN1C)[C@@H]23,-4.4%,-14.5%,-7.11%,-18.2%,-8.58%
CCc1ccc(N2C(=O)c3cc4occc4n3CC2(C)C(=O)NC2CCCCCC2)cc1 (stereo not drawn),-3.17%,4.23%,-0.389%,-1.33%,-2.53%
CCCn1c(=O)c2ccc(C(=O)NCC(C)C)cc2n2c(=O)n(CC(=O)Nc3ccc(C)c(F)c3)nc12,1.41%,0%,-1.55%,-1.7%,3.03%
CCN(C(=O)Cn1c(=O)oc2cc(S(=O)(=O)N3CC(C)CC(C)C3)ccc21)c1ccccc1 (stereo not drawn),5.58%,0%,2.73%,-3.25%,-4.45%
CC1CCCCN1CCCNC(=O)c1cc2c(s1)CN(C1CCCC1)C2 (stereo not drawn),-10.5%,-16.6%,-51.1%,-14.7%,-5.93%
O=C(c1ccc(C#Cc2cccc(F)c2)cn1)N1CC2CC2C1 (stereo not drawn),-2%,-13.3%,10.8%,-10.2%,-0.72%
CN1C(CCl)Nc2cc(Cl)c(S(N)(=O)=O)cc2S1(=O)=O (stereo not drawn),5.32%,8.45%,12.6%,-8.27%,6.42%
COc1ccc(NC(=O)CSc2nnc3n(CC(C)C)c(=O)c4cc(F)ccc4n23)cc1,1.55%,0%,10.7%,-5.87%,4.5%
